The values that follow come from PMC6212790.

The list shows a part of the results. At the low end of the ranking, values are background and their order means little.

This assay concerns the target T1, GST-Rok (full length) (UniProt O34857).
T1 sequence: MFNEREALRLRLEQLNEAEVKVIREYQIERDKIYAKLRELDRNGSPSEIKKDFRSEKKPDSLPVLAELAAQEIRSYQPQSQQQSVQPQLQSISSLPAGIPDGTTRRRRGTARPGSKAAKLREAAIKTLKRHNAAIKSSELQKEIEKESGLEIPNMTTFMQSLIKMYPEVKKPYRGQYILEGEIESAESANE
In words: protein binding microarray.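 Further: rank score from −0.5 (least bound) to 0.5 (best bound).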 To be noted: Rok is a gene silencer of Bacillus subtilis; high values mean tight binding; most listed sequences are background and not binding sites; double strand, one strand shown.
With AGACACTC, the binding signal was -0.156 E-score. CCTCGATA gave a binding signal of -0.188 E-score.

Consider AGCACGAA, for which the binding signal is -0.0288 E-score. To CATCAAAC belongs -0.191 E-score; to AATTTGAC, 0.16 E-score. TTTCAAAA: the binding signal is -0.0736 E-score. In the case of GGGTCTAA, the binding signal is -0.199 E-score. AGTGGGCG returned a binding signal of -0.0855 E-score. Regarding CACGTAGA, the binding signal is -0.0333 E-score. To TACACCCA belongs 0.0585 E-score. TGAATCAA: the binding signal is -0.14 E-score.

GCCATACC returned a binding signal of -0.211 E-score. On to ACAGTCTG, for which the binding signal was -0.235 E-score.

GCTACTCA registered a binding signal of 0.0298 E-score. Regarding CAATATAG, the binding signal was 0.211 E-score. Then ATATATCC, with 0.18 E-score. ATCGTGAG: the binding signal is -0.0159 E-score. As to CTTGACGA, the binding signal is -0.11 E-score. Sequence ACAAAAAG came in with a binding signal of -0.0244 E-score. The sequence AAAATTTT came in with a binding signal of 0.153 E-score.

For the sequence GGACATAA, the binding signal stood at 0.174 E-score. Then TCCAGCGA, with -0.0896 E-score; and CCCAGGGA, with -0.307 E-score. Then CAGTATGA, with 0.154 E-score; and AAGCACTA, with 0.024 E-score. To CAAGCCTC belongs -0.141 E-score; to CCATCTAG, -0.0113 E-score. The sequence ACTTGTGC gave a binding signal of 0.0615 E-score. Then AGCGTCAG, with -0.211 E-score; and CACGCGTG, with 0.0928 E-score. GCTAGGCC had a binding signal of -0.245 E-score. With CCATCCCC, the binding signal was -0.223 E-score. To GCAGTCGA belongs -0.234 E-score. As for ACTAAAAT, the binding signal worked out at 0.406 E-score.

With AGTCAGTC, the binding signal is -0.122 E-score.

GGCCCGGA came in with a binding signal of -0.457 E-score. Then AAGTTCAT, with 0.147 E-score; and TCATTTCA, with 0.0488 E-score.

Turning to AGCACAAC, the binding signal was -0.0101 E-score. Then CAATCTAG, with 0.285 E-score; and ATAACGCG, with 0.134 E-score. Then GCTTCGAA, with -0.000456 E-score; and CTGATGAA, with -0.0189 E-score; and AGGCTTAA, with -0.159 E-score. For GGTCGAAA, the binding signal worked out at 0.0161 E-score. Take CCGATAGG: the binding signal was 0.0382 E-score. To AGCATGCA belongs -0.128 E-score. To CAATTCAG belongs -0.00579 E-score. The sequence ATGGTCCC returned a binding signal of -0.109 E-score.

The sequence CAATCCCA showed a binding signal of -0.0104 E-score. CTACAAAC displayed a binding signal of 0.242 E-score. Take CAATTCGG: the binding signal amounted to 0.0151 E-score.

In turn, ATACTCGC gave a binding signal of 0.0576 E-score.

In turn, ACTGCATA gave a binding signal of 0.297 E-score. To CCCCTTTC belongs -0.253 E-score. Then TAACTCTA, with 0.19 E-score; and CGATAATC, with 0.159 E-score. Then TCCAACAA, with -0.0731 E-score. On to AACGTTTG, for which the binding signal amounted to 0.124 E-score. Take AAAAGTCC: the binding signal was -0.105 E-score. The sequence AAAACGTT registered a binding signal of 0.054 E-score. To CTAGACGC belongs -0.135 E-score; to GGATTGTA, 0.185 E-score; to TCTCTACA, 0.0813 E-score. Then TACGATCA, with 0.0131 E-score; and ACTGCGAC, with -0.0623 E-score. On to AGTCTAAG, for which the binding signal was -0.0824 E-score. Then AGATTGGC, with 0.136 E-score; and ACTTCGGA, with -0.0792 E-score; and ATTGTGAA, with 0.0587 E-score. Then ATAAAACA, with 0.129 E-score; and GAATTAGA, with 0.00787 E-score; and GGCTAACC, with -0.335 E-score. To ACGCGTAG belongs 0.116 E-score; to AGGACCAA, -0.0173 E-score. In the case of GAATCCAC, the binding signal was -0.0886 E-score. ATGCGAGA: the binding signal was 0.00939 E-score. The sequence AACTTACT had a binding signal of 0.222 E-score. To CTTCTTAA belongs -0.0137 E-score; to CCCTGGGA, -0.103 E-score; to GCGTTTCA, -0.175 E-score. On to GCCCAACA, for which the binding signal was -0.0691 E-score.

Turning to TACCAGAA, the binding signal came to 0.0741 E-score. Sequence ACGAGCCA displayed a binding signal of -0.0725 E-score.

AACGTCAT: the binding signal is 0.00721 E-score. AAGAGAAC: the binding signal was -0.0681 E-score. ATCGCCCA had a binding signal of -0.0827 E-score. In the case of TACCTAGA, the binding signal is 0.233 E-score.

AGGGATGA: the binding signal was -0.0335 E-score. To ACTACTTC belongs 0.193 E-score; to AATCTATC, 0.377 E-score.

For the sequence AGATCATG, the binding signal is 0.089 E-score. In turn, ATATCTTA returned a binding signal of 0.262 E-score. As for CAGACTGC, the binding signal was -0.298 E-score. Take CAAATTGC: the binding signal was -0.00859 E-score. For AGGATTGC, the binding signal is -0.00775 E-score. For GGGAGATA, the binding signal stood at 0.0382 E-score. In turn, AAGATCCG came in with a binding signal of -0.125 E-score. GGATTACA had a binding signal of 0.0462 E-score.

The sequence CGCTGCCC came in with a binding signal of -0.189 E-score. The sequence CTACTACA returned a binding signal of 0.339 E-score. To TTACGGAA belongs 0.127 E-score; to AAGGACAC, -0.165 E-score. Then GCATATCC, with -0.164 E-score.

In turn, GGATCAGA had a binding signal of -0.0818 E-score. As to AATTGGGT, the binding signal is 0.116 E-score. Consider ATGCGCGC, for which the binding signal came to 0.0747 E-score.

CGATGGAC returned a binding signal of 0.0478 E-score. Take CTCGAGCC: the binding signal is -0.175 E-score. Take GAGATAAA: the binding signal was -0.00816 E-score. ACCCGGAT showed a binding signal of -0.224 E-score. Then TACACATA, with 0.315 E-score; and CAGCTGGC, with -0.222 E-score.

For ATTAAACC, the binding signal amounted to 0.0133 E-score. Then CTACAGTC, with 0.187 E-score; and ACTAGCCA, with 0.0883 E-score; and CCATGGAG, with -0.0194 E-score. Sequence ATTAGGCG gave a binding signal of 0.0082 E-score. Turning to AGACAGTC, the binding signal is -0.145 E-score.

In the case of CACAACGA, the binding signal amounted to 0.104 E-score. Then ACCCAAGC, with -0.172 E-score; and CACCCAAC, with -0.0294 E-score; and CCCAATCC, with -0.278 E-score. Then CCAGTGAA, with -0.0951 E-score; and CCTTTGTA, with 0.207 E-score; and ACGTGAAT, with 0.195 E-score. As to GCGCTCAC, the binding signal is -0.248 E-score. As for AGTTAACT, the binding signal was found to be 0.256 E-score. With ATTTAGCA, the binding signal was 0.23 E-score.

As for ACGGACCT, the binding signal was -0.387 E-score. Sequence ATGGGCGA registered a binding signal of -0.266 E-score.

CGATGCCA showed a binding signal of -0.254 E-score.

The sequence CAGCCCCC had a binding signal of -0.49 E-score. To GCGGCGGA belongs -0.29 E-score; to AGTTACTG, 0.207 E-score; to ATGCACGG, 0.147 E-score. Then GGTTCGAA, with -0.0631 E-score; and ACCTACAT, with 0.271 E-score. To TATGGCCA belongs 0.0208 E-score; to CCAGCGGA, -0.204 E-score; to TTGAGAAA, 0.146 E-score. In turn, CACGCGGA came in with a binding signal of 0.0379 E-score. Sequence CGCCTTCA displayed a binding signal of 0.0118 E-score. To CACTCGTA belongs 0.134 E-score.

The sequence CATCTGCG came in with a binding signal of -0.15 E-score. Then AAGACTCT, with -0.0697 E-score; and CTACTAGC, with 0.232 E-score. Then ATAAAGTC, with -0.00136 E-score; and ATAGGCTG, with 0.0136 E-score. The sequence GGTATAAC displayed a binding signal of 0.313 E-score. To GACTGGGC belongs -0.371 E-score.

Sequence GCATCACC showed a binding signal of -0.0482 E-score. Then CCGTGACG, with 0.0126 E-score; and CTACATCC, with 0.0773 E-score. Regarding ATACCGGA, the binding signal was -0.147 E-score. Then AACTCAGG, with 0.0467 E-score; and ACCTCTGA, with 0.0407 E-score. To CGGGTACA belongs 0.154 E-score.

As for GCTTAAGA, the binding signal was -0.025 E-score. To ACTACCCC belongs 0.166 E-score. To ACAAGAGG belongs -0.162 E-score; to ACCCACCG, -0.179 E-score; to CTCATCCC, -0.408 E-score. As to GACCTGTA, the binding signal was -0.234 E-score. Then ACGAAAAT, with 0.231 E-score. Sequence TGACCGAA came in with a binding signal of 0.0795 E-score. CAGGGAAC showed a binding signal of -0.0781 E-score. As for ATACCACC, the binding signal was found to be 0.127 E-score. As for TATCAGCA, the binding signal worked out at 0.0489 E-score.

Consider ACCCGGCA, for which the binding signal is -0.208 E-score.

Regarding ATCCGTTC, the binding signal is -0.0558 E-score. CGTTACGA: the binding signal was determined as 0.195 E-score. Then TCCGACAA, with -0.0727 E-score; and TAGCGCCA, with 0.0857 E-score; and AGTCTCAG, with -0.0863 E-score.

Sequence ATTAAAAT returned a binding signal of 0.262 E-score. The sequence CCCCTCAG registered a binding signal of -0.462 E-score. In the case of ATCACGAA, the binding signal amounted to 0.125 E-score. Then AACAATTA, with 0.32 E-score. In turn, CTCCATTA displayed a binding signal of 0.0996 E-score. In turn, CCCCGGGG showed a binding signal of -0.495 E-score. Then GATCTGTA, with 0.034 E-score; and TAGGGTCA, with 0.0186 E-score. Then ATTCTCCC, with -0.0412 E-score; and CCTGCACA, with -0.213 E-score. As for GGCTCTTA, the binding signal is -0.257 E-score. Then ACTCTTAC, with 0.06 E-score; and CGCAGGAG, with -0.164 E-score.

ACGGGTTG gave a binding signal of -0.231 E-score. For ACTAACGC, the binding signal came to 0.212 E-score. On to GATAACCA, for which the binding signal is -0.0372 E-score.
